Experimental data as given in the supplement of paper PMC10600219.
Counter-ions that a name gives are not always drawn. Whole data set: some 2,800 compounds, median “cell viability relative to vehicle” near 1.1, cut for the lowest 2% near 0.19. This is one part of the list.

Tested on: NCI-H2228 parental
Experiment: cell viability relative to vehicle (fraction of vehicle); NCI-H2228 is an ALK-positive lung cancer line and DTP means drug-tolerant persister; higher = less growth inhibition
Settings: 100 nM; treatment time 6 days
Method in brief: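 Drug-tolerant persister NCI-H2228 cells, produced by 13 days in 1000 nM of a targeted drug, and their parental counterparts were seeded into 384-well plates and, the following day, given the 3114-agent TargetMol anti-cancer compound library at 100 nM or DMSO vehicle. After 6 days, the CellTiter-Glo 3D Cell Viability Assay was used to read ATP. Each entry reports viability compared with vehicle-treated cells.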

Compound | cell viability
C/C(=C\c1csc(C)n1)[C@@H]1C[C@@H]2O[C@]2(C)CCC[C@H](C)[C@H](O)[C@@H](C)C(=O)C(C)(C)[C@@H](O)CC(=O)N1 [Ixabepilone] | 0.119
COc1cc(OC2CCN(C)CC2)ccc1Nc1ncc2c(n1)n(C1CCCC1)c(=O)n2C | 1.24
COc1ccc(-c2cc(=S)ss2)cc1 [Anethole trithione] | 1
CN/C(=C\[N+](=O)[O-])NCCSCc1ccc(CN(C)C)o1 [Ranitidin] | 1.07
C/C=C(\C)C(=O)OC1c2c(ccc3ccc(=O)oc23)OC(C)(C)C1OC(=O)/C(C)=C/C (stereo not given) [Praeruptorin B] | 1.08
O=C(O)c1cn(C2CC2)c2cc(N3CCNCC3)c(F)cc2c1=O [Ciprofloxacin hydrochloride] | 0.894
O=C(O)c1cn(C2CC2)c2cc(N3CCNCC3)c(F)cc2c1=O [Ciprofloxacin] | 1.11
CN1CC(=O)N2[C@H](c3ccc4c(c3)OCO4)c3[nH]c4ccccc4c3C[C@@H]2C1=O [Tadalafil] | 1.28
CC(C)NCC(O)COc1ccc(CCOCC2CC2)cc1 (stereo not given) [Betaxolol hydrochloride] | 1.05
CCc1nc(N)nc(N)c1-c1ccc(Cl)cc1 [Pyrimethamine] | 1.15
CCn1c(C(=O)N(C2CC2)C2CC2)cc2c3c(ncn3C)c(Nc3cc(C)n(C)n3)nc21 | 0.914
O=C(Nc1nc2ccc(NC(=O)C34CC5CC(CC(C5)C3)C4)cc2s1)c1ccccc1 | 1.04
Nc1n[n+]([O-])c2ccccc2[n+]1[O-] [Tirapazamine] | 0.825
CC(C)(OCc1nn(Cc2ccccc2)c2ccccc12)C(=O)O [Bindarit] | 1.12
C=CCSC[C@H](N)C(=O)O [S-allyl-L-cysteine] | 1.18
CC(NC(=O)c1ccccc1/N=C/c1c(O)ccc2ccccc12)c1ccccc1 (stereo not given) [Sirtinol] | 1.03
Cc1cccc(-c2[nH]c(C(C)(C)C)nc2-c2ccc3c(c2)OCO3)n1 | 0.917
Clc1ccc(C(Cn2ccnc2)OCc2ccsc2Cl)c(Cl)c1 (stereo not given) [Vagistat] | 1.03
COc1cc(C(=O)N2CCC(N3CCN(C)CC3)CC2)ccc1Nc1ncc2c(n1)N(C)c1ccccc1C(=O)N2C | 1.11
COC(=O)/C=C/c1cccc(N(Cc2ccc(-c3ccc(N(C)C)cc3)cc2)C(=O)C2CCCCC2)c1 [Fexaramine] | 1.12
CC1=C(C(=O)Nc2ccc3[nH]ncc3c2)C(c2ccc(F)cc2)NC(=O)N1 (stereo not given) | 0.961
C[C@@H](Nc1cc(F)cc(F)c1)c1cc(C(=O)N(C)C)cc2c(=O)cc(N3CCOCC3)oc12 | 1
c1cnc(N2CCN(Cc3ccc4c(c3)OCO4)CC2)nc1 [Piribedil] | 0.978
COc1cc2c(c(OC)c1OC)-c1c(cc3c(c1OC)OCO3)CC(C)C(C)C2 (stereo not given) [Schizandrin B] | 1.06
NC(=O)CCC(N)C(=O)O (racemic) [DL-Glutamine] | 1.01

Compound | cell viability
CCOC(=O)c1cnc2ccc(-c3cncc(NS(=O)(=O)c4ccccc4)c3)cn12 | 0.943
CC(C)(O)c1cc(Nc2cc(Oc3cn(C4CC4)nc3C3CCOCC3)ccn2)ccn1 | 1.04
CC(C)(C)OC(=O)c1ncn2c1C(C)(C)Nc1ccccc1-2 | 1.14
CC(C)=CCC[C@](C)(O)[C@H]1CC[C@]2(C)[C@@H]1[C@H](O)C[C@@H]1[C@@]3(C)CC[C@H](O)C(C)(C)[C@@H]3CC[C@]12C [(20S)-Protopanaxadiol] | 1.1
Cc1ccc(-c2cn3c4c(sc3n2)CCCC4)cc1 [Pifithrin-β hydrobromide] | 0.992
COc1cc2c(cc1OC)CC(=O)N(CCCN(C)C[C@H]1Cc3cc(OC)c(OC)cc31)CC2 [Ivabradine hydrochloride] | 1.26
O=C(O)C(=O)O.[NH-][C@@H]1CCCC[C@H]1[NH-].[Pt+2] [Oxaliplatin] | 1.05
Cc1ccc(NC(=O)c2ccc(CN3CCN(C)CC3)cc2)cc1Nc1nccc(-c2cccnc2)n1 [Imatinib] | 1.11
Cc1ccc(NC(=O)c2ccc(CN3CCN(C)CC3)cc2)cc1Nc1nccc(-c2cccnc2)n1 [Imatinib Mesylate] | 1.16
O=C(NCC1(c2nc(-c3ccccc3)cs2)CCOCC1)c1cccc(-c2noc(C(F)(F)F)n2)c1 | 1.03
CCc1c2c(nc3ccc(O)cc13)-c1cc3c(c(=O)n1C2)COC(=O)[C@]3(O)CC | 0.0693
CCc1cc2c(cc1N1CCC(N3CCOCC3)CC1)C(C)(C)c1[nH]c3cc(C#N)ccc3c1C2=O [Alectinib] | 0.592
OC[C@H]1O[C@H](O[C@]2(CCl)O[C@H](CCl)[C@@H](O)[C@@H]2O)[C@H](O)[C@@H](O)[C@H]1Cl [Sucralose] | 1.23
CCC/N=C1\S/C(=C\c2ccc(OC[C@H](O)CO)c(Cl)c2)C(=O)N1c1ccccc1C [Ponesimod] | 1.08
CNC(=O)c1cc(Oc2ccc(NC(=O)Nc3cc(C(C)(C)C)nn3-c3ccc4ncccc4c3)c(F)c2)ccn1 | 1.27
CC(C)C[C@H](NC(=O)[C@@H](NC(=O)c1cccc(-c2ccccc2)n1)[C@@H](C)O)B(O)O [Delanzomib] | 0.096
COc1ccc2c(c1)c(CC(=O)O)c(C)n2C(=O)c1ccc(Cl)cc1 [Indometacin] | 1.13
CN1CCC(=C2c3ccccc3CCc3cccnc32)CC1 [Azatadine Maleate] | 1.14
COC(=O)C1=CO[C@@H](O[C@@H]2O[C@H](CO)[C@@H](O)[C@H](O)[C@H]2O)[C@H]2[C@@H]1[C@H](O)C[C@]2(C)OC(C)=O [8-O-Acetylshanzhiside methyl ester] | 0.898
Oc1cc(O)c2c(c1)O[C@H](c1ccc(O)c(O)c1)[C@H](O)C2 [Epicatechin] | 1.09
COc1ccc(C[C@H]2COC(=O)[C@@H]2Cc2ccc(O[C@@H]3O[C@H](CO)[C@@H](O)[C@H](O)[C@H]3O)c(OC)c2)cc1OC [Arctiin] | 1.13
C(=C\c1ccccc1)/CN1CCN(C(c2ccccc2)c2ccccc2)CC1 [Stugeron] | 1.1
C[C@]1(O)C[C@@H](c2nc(-c3ccc4ccc(-c5ccccc5)nc4c3)c3c(N)nccn32)C1 [Linsitinib] | 0.726
CC(C)=CCc1c(O)ccc(C(=O)/C=C/c2ccc(O)cc2)c1O [Isobacachalcone] | 1.11
COc1ccc2c(c1OC)C(=O)O[C@@H]2[C@H]1c2c(cc3c(c2OC)OCO3)CCN1C [Noscapine hydrochloride] | 1.04

Compound | cell viability
CC(=O)NCCCS(=O)(=O)O [Acamprosate calcium] | 1.12
O=C(O)c1cc(/N=N/c2ccc(O)c(C(=O)O)c2)ccc1O [Olsalazine disodium] | 1.29
N#Cc1cnc(Nc2cc(NC[C@H]3CNCCO3)c(C(F)(F)F)cn2)cn1 | 1.07
CCCC(CCC)C(=O)Nc1ccn([C@@H]2O[C@H](CO)[C@@H](O)C2(F)F)c(=O)n1 | 1.12
O=C(Nc1ccccc1-c1cn2c(CN3CCNCC3)csc2n1)c1cnc2ccccc2n1 [SRT1720 hydrochloride] | 0.985
CC(C)(C)NCC(O)COc1cccc2c1CCC(=O)N2 (stereo not given) [Carteolol hydrochloride] | 1.07
CNC(=O)c1cc(Oc2ccc(NC(=O)Nc3ccc(Cl)c(C(F)(F)F)c3)c(F)c2)ccn1 [Regorafenib] | 0.996
CN(C)CC(=O)Nc1ccc2[nH]c(=O)c3ccccc3c2c1 | 1.15
Cn1cc(-c2cc3c(N4CCN(c5ncc([C@@](C)(N)c6ccc(F)cc6)cn5)CC4)ncnn3c2)cn1 [Avapritinib] | 0.846
COc1cc2c(=O)c(-c3ccc(O)cc3)coc2cc1O [Glycitein] | 1.14
N#CC(=C(O)c1ccc(Cl)cc1Cl)c1nc2ccccc2c(=O)[nH]1 [Ciliobrevin A] | 0.975
CNCc1ccc(-c2cc(-c3nc(-c4ccc(S(=O)(=O)C(C)C)cc4)cnc3N)on2)cc1 [Berzosertib] | 0.976
COc1ccc(OC)c(C(O)CNC(=O)CN)c1 (stereo not given) [Midodrine hydrochloride] | 1.16
C=CC(=O)Nc1ccc(CN(C(=O)Nc2c(Cl)c(OC)cc(OC)c2Cl)c2cc(Nc3ccc(N4CCN(C)CC4)cc3)ncn2)cc1 | 0.879
COC[C@H]1C[C@@H](c2nc(-c3ccc4c(c3)COc3cc5c(ccc6nc([C@@H]7CC[C@H](C)N7C(=O)[C@@H](NC(=O)OC)C(C)C)[nH]c65)cc3-4)c[nH]2)N(C(=O)[C@H](NC(=O)OC)c2ccccc2)C1 [Velpatasvir] | 1.1
C=CC(=O)Nc1cc2c(Nc3ccc(F)c(Cl)c3)ncnc2cc1OCCCN1CCOCC1 [Canertinib dihydrochloride] | 1.12
O=C(NCc1ccccc1)c1csc(Nc2ccncn2)n1 [Thiazovivin] | 0.789
CN(CC(=O)N(Cc1ccc(C2CCCCC2)cc1)c1ccc(C(=O)O)cc1)S(=O)(=O)c1c(F)c(F)c(F)c(F)c1F | 1.07
OC(CNCC(O)C1CCc2cc(F)ccc2O1)C1CCc2cc(F)ccc2O1 (stereo not given) [Nebivolol hydrochloride] | 1.1
NC(=O)c1cccc2cn(-c3ccc([C@@H]4CCCNC4)cc3)nc12 [Niraparib] | 1.08
Cc1cn(CCN2CCN(c3ccccc3-c3cc(C#N)cc(C(=O)NCCCN4CCCC4)c3)CC2)c2ccccc12 | 1.07
O=C(CCc1ccc(O)cc1)c1c(O)cc(O)cc1O [Phloretin] | 1.11
N#Cc1cccc(-c2c[nH]c3ncnc(N4CCOCC4)c23)c1 | 1.01
CNC(=O)c1cccc(-c2ccc3c(N4CCOC[C@@H]4C)nc(N4CCOC[C@@H]4C)nc3n2)c1 [Vistusertib] | 0.699
C=CCNC(N)=S [Allylthiourea] | 1.12
